# “And” between values parts separate entries of the source, which are not always exact repeats. Equal values may be shown once. Hit rate of the full screen: of about 1,400 compounds, about 25 (2%) were called active. Inconclusive results, whose numbers are uncertain, are shown with a selection of clear calls. Calls follow the shape of the dose curve; as a rule, active = well fitted inhibition curve with a large enough effect; inconclusive = small, poorly fitted or top-dose-only effect; inactive = flat fitted curve, though single readings scatter. Where the call is inconclusive, the potency comes from a doubtful curve fit.
# Test: Nrf2 qHTS screen for inhibitors: A549 ARE-Fluc Cytotoxicity Counterscreen for Hit Validation;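 also: cells exposed to compounds for 18 to 24 hours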
# Details: A549 ARE-Fluc cells; series mostly up to 46.1 µM
# Method in brief: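 Read-out: CellTiter Fluor fluorescence at 405/525 nm, where signal loss means cytotoxicity; values normalized to controls. Cells were A549 ARE-Fluc at 5000 per well, treated 18-24 h at 37°C after a 2 h settling period.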
# Potency is read from the fitted curve at half-maximal effect; tags tell the direction and shape of the fitted curve.
row,Compound,Potency
1,C[C@H]1CCCC=CC2C[C@H](O)C[C@@H]2[C@H](O)C=CC(=O)O1 (stereo partly drawn),"inconclusive: 0.164 µM [inhibitor, full curve]"
2,CCCCCn1c(=O)c(C(=O)Nc2nc3ccccc3[nH]2)c(O)c2ccccc21,"inconclusive: 6.51 µM [inhibitor, partial curve]"
3,Cc1cc(S(=O)(=O)NC(C)C)ccc1OCC(=O)N1CCN(Cc2ccc3c(c2)OCO3)CC1,inactive
4,C[C@H]1O[C@@H](OC2CC[C@]3(C=O)[C@H]4CC[C@]5(C)[C@@H](C6=CC(=O)OC6)CC[C@]5(O)[C@@H]4CC[C@]3(O)C2)CC2OC(C)(C)OC21 (stereo partly drawn),"inconclusive: 0.0731 µM [inhibitor, full curve]"
5,Nc1ncnc2c1ccn2[C@@H]1O[C@H](CO)[C@@H](O)[C@H]1O,"inconclusive: 0.82 µM [inhibitor, full curve]"
6,CC12CC[C@H]3[C@@H](CCC4(O)C[C@H](O)CCC34/C=N/NC(=O)c3ccccc3F)C1(O)CCC2C1=CC(=O)OC1 (stereo partly drawn),"inconclusive: 10.3 µM [inhibitor, partial curve, poor fit]"
7,CC(=O)OC1CC2(O)C3CCC4CC(O)CCC4(C)C3CCC2(C)C1C1=CC(=O)OC1 (stereo not drawn),"inconclusive: 0.092 µM [inhibitor, full curve]"
8,CC12CC[C@H]3[C@@H](CCC4(O)C[C@H](O)CCC34/C=N/NC(=O)c3ccccc3[N+](=O)[O-])C1(O)CCC2C1=CC(=O)OC1 (stereo partly drawn),"inconclusive: 6.51 µM [inhibitor, partial curve]"
9,CN(C)c1ccc(C(=O)N/N=C/C23CC[C@@H](O)CC2(O)CC[C@@H]2[C@@H]3CCC3(C)C(C4=CC(=O)OC4)CCC23O)cc1 (stereo partly drawn),"inconclusive: 6.51 µM [inhibitor, partial curve]"
10,CC(=O)OC1CC(OC2C(O)CC(OC3C(O)CC(OC4CCC5(C)C(CCC6C5CCC5(C)C(C7=CC(=O)OC7)C(O)CC65O)C4)OC3C)OC2C)OC(C)C1OC1OC(CO)C(O)C(O)C1O (stereo not drawn),"inconclusive: 0.82 µM [inhibitor, full curve]"
11,Nc1c(C(=O)Nc2ccc(Cl)c(C(F)(F)F)c2)sc2nc3c(cc12)N1CCC3CC1,"inconclusive: 29.1 µM [inhibitor, single point]"
12,CC(=O)OC(C)(C)/C=C/C(=O)C(C)(O)C1[C@H](O)C[C@@]2(C)C3CC=C4C(CC[C@@H](O)C4(C)C)[C@]3(CO)C(=O)C[C@]12C (stereo partly drawn),"inconclusive: 0.206 µM [inhibitor, full curve]"
13,NC(=O)c1cn(C2OC(CO)C(O)C2O)c2ncnc(N)c12 (stereo not drawn),"inconclusive: 130 nM [inhibitor, full curve] and inconclusive: 184 nM [inhibitor, full curve]"
14,CCC(C)(O)C(=O)OC1C(=O)OC2CC3C(C)=CC(=O)C(O)C3(C)C3C4(O)OCC23C1C(C)C4O (stereo not drawn),"inconclusive: 4.61 µM [inhibitor, partial curve]"
15,COC(=O)[C@]12OC[C@]34C([C@@H](O)[C@@H]1O)[C@]1(C)CC(=O)C(O)=C(C)[C@@H]1C[C@H]3OC(=O)[C@H](O)[C@@H]24 (stereo partly drawn),"inconclusive: 10.3 µM [inhibitor, partial curve]"
16,CC[C@@]1(O)C(=O)OCc2c1cc1n(c2=O)Cc2cc3c(N)cccc3nc2-1,"inconclusive: 1.3 µM [inhibitor, full curve]"
17,c1ccc2c(c1)[I+]c1ccccc1-2,"inconclusive: 11.6 µM [inhibitor, partial curve]"
18,CC(C)N1CC=C(c2c[nH]c3ccccc23)CC1,inactive
19,Cc1ccc(-c2cc(-c3ccc(C)cc3)[n+](-c3ccccc3)c(-c3ccc(C)cc3)c2)cc1,active: 5.8 µM
20,C[C@]12CC[C@H](O)C[C@H]1CCC1C2CC[C@]2(C)[C@@H](c3ccc(=O)oc3)C[C@H]3O[C@]132 (stereo partly drawn),"inconclusive: 2.31 µM [inhibitor, full curve]"
21,C[C@H]1O[C@@H](O[C@H]2[C@@H](O)C[C@@H](O[C@H]3[C@@H](O)C[C@H](O[C@H]4CC[C@@]5(C)[C@H](CC[C@@H]6[C@@H]5CC[C@]5(C)[C@@H](C7=CC(=O)OC7)CC[C@]65O)C4)O[C@@H]3C)O[C@@H]2C)C[C@H](O)[C@@H]1O,"inconclusive: 0.058 µM [inhibitor, full curve]"
22,CCN1CC=C(c2c[nH]c3ccccc23)CC1,"inconclusive: 0.0146 µM [inhibitor, full curve]"

row,Compound,Potency
1,CC[C@@H](O)C[C@H]1CCC[C@@]2(C[C@@H]3OC(=O)/C=C/[C@@](C)(O)[C@@H](O)[C@H](C)[C@@H](O)[C@H](OC4CCC(N(C)C)C(C)O4)[C@@H](O)[C@](C)(O)CCCCC/C=C/[C@@H]4CC(C)(C)O[C@@]4(O)C[C@H](O2)[C@H]3C)O1 (stereo partly drawn),"inconclusive: 16.4 µM [inhibitor, partial curve, poor fit]"
2,CC(=O)OC1CC[C@]2(C#N)[C@H]3CC[C@]4(C)[C@H](C5C=CC(=O)O5)CCC4(O)C3CCC2(O)C1 (stereo partly drawn),"inconclusive: 11.6 µM [inhibitor, partial curve]"
3,C=C1C(=O)O[C@@H]2C[C@@H](C)[C@@H]3C=CC(=O)[C@@]3(C)[C@@H](OC(=O)CC(=O)O[C@H]3[C@@H]4C(=C)C(=O)O[C@@H]4C[C@@H](C)[C@@H]4C=CC(=O)[C@]43C)[C@H]12,active: 2.91 µM
4,CC(=O)OC1CC(OC2C(O)CC(OC3C(O)CC(OC4CCC5(C)C(CCC6C5CC(O)C5(C)C(C7=CC(=O)OC7)CCC65O)C4)OC3C)OC2C)OC(C)C1OC1OC(CO)C(O)C(O)C1O (stereo not drawn),"inconclusive: 206 nM [inhibitor, full curve] and inconclusive: 231 nM [inhibitor, full curve]"
5,CCCCCCn1c(=O)c(C(=O)Nc2cnccn2)c(O)c2ccccc21,"inconclusive: 8.2 µM [inhibitor, partial curve]"
6,C[C@]12CC[C@H](O)C[C@H]1CC[C@@H]1[C@@H]2C[C@@H](O)[C@]2(C)[C@@H](C3=CC(=O)OC3)CC[C@]12O,"inconclusive: 1.46 µM [inhibitor, full curve]"
7,CC1OC(OC2CC(O)C3(CO)C4C(O)CC5(C)C(C6=CC(=O)OC6)CCC5(O)C4CCC3(O)C2)C(O)C(O)C1O (stereo not drawn),"inconclusive: 0.0651 µM [inhibitor, full curve]"
8,CC(=O)O[C@H]1CC[C@]2(C=O)C3CC[C@]4(C)[C@@H](C5=CC(=O)OC5)CC[C@]4(O)C3CC[C@]2(O)C1 (stereo partly drawn),"inconclusive: 0.82 µM [inhibitor, full curve]"
9,O=C1NC2C(O)C(O)C(O)C(O)C2c2cc3c(c(O)c21)OCO3 (stereo not drawn),"inconclusive: 0.366 µM [inhibitor, full curve]"
10,COC1C(O)C(C)OC(OC2CCC3(C)C(CCC4C3C(O)CC3(C)C(C5=CC(=O)OC5)CCC43O)C2)C1O (stereo not drawn),"inconclusive: 0.291 µM [inhibitor, full curve]"
11,C=C(C)[C@@]12OC3(c4ccccc4)O[C@@H]1C1[C@@H]4O[C@]4(CO)[C@@H](O)[C@]4(O)C(=O)C(C)=C[C@H]4[C@@]1(O3)[C@H](C)[C@H]2OC(=O)/C=C/C=C/c1ccccc1 (stereo partly drawn),"inconclusive: 0.0517 µM [inhibitor, full curve, poor fit]"
12,CC1OC(OC2C=C3CCC4C(CCC5(C)C(c6ccc(=O)oc6)CCC45O)C3(C)CC2)C(O)C(OC2OC(CO)C(O)C(O)C2O)C1O (stereo not drawn),"inconclusive: 0.0184 µM [inhibitor, full curve]"
13,CC1OC(O[C@H]2C[C@@H](O)[C@]3(CO)[C@H]4[C@H](O)C[C@]5(C)[C@@H](C6=CC(=O)OC6)CC[C@]5(O)[C@@H]4CC[C@]3(O)C2)C(O)C(O)C1O (stereo partly drawn),"inconclusive: 0.058 µM [inhibitor, full curve]"
14,CC[C@@]1(O)C(=O)OCc2c1cc1n(c2=O)Cc2cc3ccccc3nc2-1,"inconclusive: 0.58 µM [inhibitor, full curve, poor fit]"
15,CC12CCC3C(CCC4(O)CC(O)CCC34C=O)C1(O)CCC2C1=CC(=O)OC1 (stereo not drawn),"inconclusive: 1.03 µM [inhibitor, full curve]"
16,CCN(CC)C(=O)c1ccc(NC(=O)c2cccc(S(=O)(=O)N3CCN(Cc4ccccc4)CC3)c2)cc1,inactive
17,CCC(C)C1NC(=O)C(NC(=O)C(CC(C)C)N(C)C(=O)C2CCCN2C(=O)C(C)O)C(C)OC(=O)C(Cc2ccc(OC)cc2)N(C)C(=O)C2CCCN2C(=O)C(CC(C)C)NC(=O)[C@H](C)C(=O)[C@H](C(C)C)OC(=O)CC1O (stereo partly drawn),"inconclusive: 0.0073 µM [inhibitor, full curve]"
18,O=C(Nc1ccc(OC(=O)N2CCCCC2)cc1)N1CCOCC1,inactive
19,O=C(O)c1cccc2nc3ccccc3nc12,inactive
20,CC(=NNC(=S)N1CC2CCC(CC2)C1)c1nccs1,"inconclusive: 9.2 µM [inhibitor, partial curve]"
21,CCCCCn1c(=O)c(C(=O)Nc2cnccn2)c(O)c2ccccc21,"inconclusive: 8.2 µM [inhibitor, partial curve]"

# Source: PubChem BioAssay AID720523 (National Center for Advancing Translational Sciences (NCATS), 2013)
